Out of some 360,000 compounds screened, about 7,500 (2.1%) were called active. Inconclusive results, whose numbers are uncertain, are shown with a selection of clear calls. Calls follow the shape of the dose curve; as a rule, active = well fitted cell-killing curve with a large enough effect; inconclusive = small, poorly fitted or top-dose-only effect, or effect the other way, or another doubt; inactive = no such curve, though single readings can be large or run the other way. Potencies of inconclusive entries are left out as doubtful fits.
Assay: qHTS for induction of synthetic lethality in tumor cells producing 2HG: qHTS for the HT-1080-IDH1KD cell line;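 as to activity, negative = toxicity: 0% = DMSO wells and -100% = cell-free medium wells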
Settings: HT-1080 IDH1 knockdown viability, ATP luminescence, 48 h; activity, negative = toxicity: at 46.1 µM (top of the series) unless noted
Method in brief: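 In this qHTS, HT-1080 cells depleted of IDH1 are exposed for 48 h at 37 °C to compound titrations. Toxicity is scored from CellTiter-Glo luminescence, with DMSO as full viability and medium alone as none.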
Potency is read from the fitted curve at half-maximal effect; tags tell the direction and shape of the fitted curve.

| SMILES | Potency | activity, negative = toxicity |
| --- | --- | --- |
| CC(NC(=O)c1ccc([N+](=O)[O-])o1)C1CC2CCC1C2 (stereo not given) | inconclusive [cytotoxic, partial curve] |  |
| CNc1nc(Nc2ccc(C(=O)OC)cc2)c2sccc2n1 | inconclusive [cytotoxic, single point] |  |
| CN1/C(=C/C=C/c2n(C)c3cc([N+](=O)[O-])c([N+](=O)[O-])cc3[n+]2C)C(C)(C)c2ccccc21 | inconclusive [cytotoxic, partial curve] |  |
| Cc1ccc(C)c2[nH]c(=O)c(CN(Cc3nnnn3C3CCCCC3)CC3CCCO3)cc12 (stereo not given) | inconclusive [cytotoxic, single point] |  |
| Oc1[nH]c2ccccc2c1N=NC(=S)NCCc1ccccc1 | inconclusive [cytotoxic, single point] |  |
| Cc1ccc(-c2nc(N/N=C/c3ccncc3)c3ccccc3n2)cc1 | active: 10 µM |  |
| COc1ccc(CN(Cc2ccccc2)C(=O)c2ccc(O)cc2)cc1COc1ccc(NC(C)=O)cc1 | inconclusive [cytotoxic, single point] |  |
| Cc1cc(=O)n2cccc(O)c2n1 | inconclusive [cytotoxic, single point] |  |
| COC(=O)C1=C(N)Oc2cc(N(C)C)ccc2C1c1ccccc1OC (stereo not given) | active: 4.11 µM |  |
| CNC(=O)/C(C#N)=C/c1cccc(Oc2ccccc2)c1 | inconclusive [cytotoxic, single point] |  |
| COC(=O)c1cc2c(ccn2-c2ccc(F)cc2)n1Cc1ccc(OC)cc1 | inactive |  |
| C=Cc1ccc(Cn2c(C)c(C(=O)NCc3cccc([N+](=O)[O-])c3)sc2=O)cc1 | inconclusive [cytotoxic, single point] |  |
| CC(C(=O)NN)c1ccc([N+](=O)[O-])cc1 (stereo not given) | inactive |  |
| O=C(NCC(c1ccco1)N1CCCCC1)c1ccc(COc2ccc(Cl)cc2)cc1 (stereo not given) | inconclusive [cytotoxic, single point] |  |
| O=C(NCCCN1CCOCC1)C(=O)N/N=C/c1c2ccccc2cc2ccccc12 | inconclusive [cytotoxic, single point] |  |
| CSc1nnc(NC(=O)c2nc(S(=O)(=O)Cc3ccccc3F)ncc2Cl)s1 | active: 20.6 µM |  |
| Cc1ccc(N(CC(=O)NCc2ccc(F)cc2)S(=O)(=O)c2c(C)nn(C)c2C)cc1 | inactive |  |
| Cc1c(Cc2ccccc2)c(=O)oc2cc(O)ccc12 | inconclusive [cytotoxic, single point] |  |
| CC(C)(C)c1ccc(C(=O)NCCC(=O)NCc2ccc(F)cc2)cc1 | inactive |  |
| CCOC(=O)Cn1nnnc1CN(CCc1ccccc1)Cc1cc2cc(CC)ccc2[nH]c1=O | inconclusive [cytotoxic, single point] |  |
| O=C(O)CCCN1C(=O)/C(=C\C(Cl)=C\c2ccccc2)SC1=S | inconclusive [cytotoxic, single point] |  |
| COc1ccc(C(=O)Oc2c(CN3CCOCC3)cc(Cl)c3cccnc23)cc1 | inconclusive [cytotoxic, single point] |  |
| CCOC(=O)N1CCN(c2cc(N3CCN(CC)CC3)c(F)cc2[N+](=O)[O-])CC1C (stereo not given) | inconclusive [cytotoxic, single point] |  |

| SMILES | Potency | activity, negative = toxicity |
| --- | --- | --- |
| CSCCC(=O)Nc1ccc(C(C)=O)cc1 |  | inactive: -2.71% [at 9.24 µM] |
| Cc1ccccc1S(=O)(=O)N1C[C@H]2[C@H]3C(=O)N(C4CCCCC4)C(=O)[C@H]3CC(=O)[C@H]2[C@@H]1c1ccc(Cl)cc1 | inactive |  |
| COc1ccc(CN(C)c2ccc(S(=O)(=O)N3CCN(C)CC3)cc2[N+](=O)[O-])cc1OC | inconclusive [cytotoxic, full curve] |  |
| N#C/C(C(=O)Nc1ccc(Cl)cc1)=C(/S)Nc1ccccc1 | inconclusive [cytotoxic, single point] |  |
| CC1(C(=O)NCc2ccc(C(F)(F)F)cc2)CCN1Cc1ccc(-c2ccccc2)o1 (stereo not given) | inconclusive [cytotoxic, single point] |  |
| Cc1cccc2sc(NC(=O)CCn3cccc3)nc12 | inactive |  |
| CCC1Nc2ncnc(N3CCOCC3)c2N(Cc2ccc(Br)cc2)C1=O (stereo not given) | inactive |  |
| CSc1ncnc2c1ncn2CCCNCc1ccccn1 | inactive |  |
| CCN(CC)CCCCCCCCOC(=O)c1cc(OC)c(OC)c(OC)c1 | inconclusive [cytotoxic, single point] |  |
| c1cc2c(cc1C1CCCCC1)c1c3n2CCCNC3CCC1 (stereo not given) | active: 20.6 µM |  |
| N#Cc1cc2c(nc1SCC(=O)Nc1sc3c(c1C#N)CCC3)CCC2 | inactive |  |
| CCOc1ccc(Cl)cc1S(=O)(=O)N1CCN(c2ccc(F)cc2)CC1 | inactive |  |
| O=C(Nc1ccc(F)cc1)c1ccccc1Oc1ccc(C(F)(F)F)cc1[N+](=O)[O-] | inconclusive [cytotoxic, single point] |  |
| CS(=O)(=O)c1ccc2nc(NC(=O)c3ccccc3)sc2c1 | inconclusive [cytotoxic, single point] |  |
| Cc1ccc(S(=O)(=O)CC(N)=O)cc1 |  | inactive: -4.88% [at 9.24 µM] |
| CCc1ccc(-c2cc(C)no2)cc1S(=O)(=O)N1CC(=O)Nc2ccccc21 | inconclusive [cytotoxic, single point] |  |
| CCOc1ccc(NCc2nc3ccccc3n2CCOc2ccccc2)cc1 | inconclusive [cytotoxic, single point] |  |
| Cc1cccc(OCCCCc2c(C)n[nH]c2C)c1 | inconclusive [cytotoxic, single point] |  |
| Cc1ccc(Oc2nc3ccccn3c(=O)c2/C=C(\C#N)C(=O)NC2CCS(=O)(=O)C2)cc1 (stereo not given) | inactive |  |
| CCOc1cc(/C=N/Nc2cc(C)nc(-n3nc(C)cc3C)n2)ccc1O | active: 5.8 µM |  |
| CCOc1ccc(NS(=O)(=O)c2cc3c4c(c2)C(C)C(=O)N4CCC3)cc1 (stereo not given) | inactive |  |
| COc1cccc(Cn2nnc(C(=O)Nc3cc(Cl)ccc3OC)c2N)c1 | inconclusive [cytotoxic, full curve] |  |

Reference: PubChem BioAssay AID686971 (National Center for Advancing Translational Sciences (NCATS), 2013)
